Screen size: about 45,000 compounds; about 65 (0.1%) were called active. The call rests on the fitted dose curve; in most records, active means well fitted activation curve with a large enough effect; inconclusive means small, poorly fitted or top-dose-only effect; inactive means no such curve, though single readings can be large or run the other way. The list shows a part of the results.
target: Galactocerebrosidase (Homo sapiens) (UniProt P54803); test: A Novel Cell-Based Assay to Identify Small Molecules for B -Galactocerebrosidase; settings: 145M-Twi-hGALC-G270D cells (Twitcher mouse brain line with human GALC G270D), HMU-beta-Gal fluorescence, 48 h; series mostly up to 57.5 µM; activation: at the top concentration; further: 0% is about no effect; nearly all actives have a fitted effect of over 65% in size
Chain of UniProt P54803 (P54803 whole entry, looked up): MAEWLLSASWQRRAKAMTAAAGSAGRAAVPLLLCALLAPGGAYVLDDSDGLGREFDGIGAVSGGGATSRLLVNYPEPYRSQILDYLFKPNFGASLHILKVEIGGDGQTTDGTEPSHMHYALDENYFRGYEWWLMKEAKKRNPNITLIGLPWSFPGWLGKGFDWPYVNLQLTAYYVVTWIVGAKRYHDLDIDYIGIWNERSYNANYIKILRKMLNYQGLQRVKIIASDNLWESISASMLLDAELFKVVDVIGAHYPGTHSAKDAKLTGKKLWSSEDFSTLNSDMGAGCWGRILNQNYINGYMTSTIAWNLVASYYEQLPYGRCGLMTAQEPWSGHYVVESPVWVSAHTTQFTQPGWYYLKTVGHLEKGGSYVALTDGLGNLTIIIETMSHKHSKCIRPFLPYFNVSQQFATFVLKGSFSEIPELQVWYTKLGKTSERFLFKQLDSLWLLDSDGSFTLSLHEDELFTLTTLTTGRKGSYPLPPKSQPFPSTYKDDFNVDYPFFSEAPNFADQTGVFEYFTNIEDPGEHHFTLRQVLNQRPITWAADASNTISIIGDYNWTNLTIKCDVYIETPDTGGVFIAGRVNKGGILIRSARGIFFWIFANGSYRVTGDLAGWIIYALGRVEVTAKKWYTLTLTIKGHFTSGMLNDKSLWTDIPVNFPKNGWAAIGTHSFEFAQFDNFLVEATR
In short: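 Live 145M-Twi cells (Twitcher mouse brain-derived, GALC-null) stably expressing human GALC-G270D, with a wild-type GALC line, were compound-treated. Residual GALC activity was then read as fluorescence from 0.1 mM final HMU-β-gal at pH 5.2; higher signal means activation.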

activation, inactive:
O=C(Cn1c(=O)nc(-c2ccccc2)c2cc(Cl)ccc21)N1CCN(c2ccccc2F)CC1 -3.5%
COc1ccc2c(c1)CC(C(=O)NCCCN1CCN(c3cccc(Cl)c3)CC1)CO2 (stereo unspecified) -10.9%
CCOC(=O)c1sc2ccccc2c1S(=O)(=O)N1CCN(c2cccc(C)c2)C(C)C1 (stereo unspecified) -5.15%
COc1cccc2c1ncc1c(-c3ccc(C)cc3)nn(-c3ccc(F)cc3)c12 5.21%
Cc1cccc(-c2nnn3c2nc(NCc2ccc4c(c2)OCO4)c2ccccc23)c1 -20.4%
CC(C)COc1ccc(C(=O)N2CCCCC2CCN2CCCCC2)cc1 (stereo unspecified) -9.28%
COc1ccc(CCNC(=O)c2cnn(-c3cccc(C)c3)c2C2CCN(C(=O)OC(C)(C)C)CC2)cc1OC -4.36%
CC(=O)c1ccc(NC(=O)c2noc3c2CSc2ccccc2-3)cc1 -7.65%
COc1cccc(NC(=O)CCc2c(C)nc3nc(CNC(=O)c4cccc(F)c4)nn3c2C)c1 -21.2%
COc1ccc(-c2cnc(C)o2)cc1S(=O)(=O)Nc1c(C)cc(C)cc1C -5.35%
CC(c1ccccc1)n1cc2c(c1-c1ccccc1Br)c(=O)n(C)c(=O)n2C (stereo unspecified) -15.7%
Cc1ccc2c(c1)-c1c(cnc3cc(-c4ccc(F)cc4)nn13)CO2 -6.48%
CCc1ccc(C2=C(C)C(N3CCC(C(=O)NCc4ccccc4)CC3)=NS2(=O)=O)cc1 -4.52%
Cc1ccc(CNC(=O)c2c(O)nc3cc(C)ccn3c2=O)cc1 6.96%
Cc1ccc(Cl)cc1N1CCN(C(=O)c2c(C)oc3ncnc(N4CCCCC4)c23)CC1 -6.05%
CCc1ccc(CN2CCc3nc(N4CCN(c5ccccc5F)CC4)ncc3C2)cc1 -18.9%
CCCCOc1cccc(C(=O)Nc2cc(NC(=O)c3ccco3)ccc2OC)c1 -10.5%
COc1ccc(-n2nc(CCC(=O)N(C)O)cc2-c2ccc(Cl)cc2)cc1 -9.8%
CCc1cc(C(=O)Nc2sc(C)c(CC)c2C#N)no1 -17.6%
C#CCOc1ccc(-c2nnc(Nc3ccc(NC(C)=O)cc3)c3ccccc23)cc1 -11.1%
Cc1cc(F)ccc1NC(=O)C1CCCN(S(=O)(=O)c2ccc3c(c2)CCCC(=O)N3)C1 (stereo unspecified) -18.2%
COc1ccc(Cn2c(SCC(N)=O)nc3c(sc4ccccc43)c2=O)cc1 -15.9%
Cc1cnc2c(c1SCC(=O)Nc1ccc(F)cc1F)c(=O)n(C)c(=O)n2C -3.36%
COc1ccc(S(=O)(=O)c2c(Nc3ccc(C)cc3)sc(C(=O)c3ccc4c(c3)OCO4)c2N)cc1 -15%
COc1ccc(N(Cc2cccs2)C(=O)COc2ccc(C(C)C)cc2)cc1 -26.6%
CCCCN(CCCC)CCNC(=O)c1cc(-c2cccnc2)nc2ccc(S(=O)(=O)N3CCC(C)CC3)cc12 -14%
